Experimental data as given in article PMC4242493.
The list shows a part of the results. The list includes weakly bound sequences.

Target: MaxL homodimer (UniProt P61244)
Experiment: universal protein-binding microarray (PBM)
Conditions: PBS-based mixture, 10 nM His-tagged protein dimer, 2% milk, 200 ng/uL BSA, 50 ng/uL salmon testes DNA, 0.02% TX-100; detection with Alexa 488 anti-His …; high values mean tight binding; most listed sequences are background and not binding sites; double strand, one strand shown

UniProt P61244, sequence (P61244 whole entry): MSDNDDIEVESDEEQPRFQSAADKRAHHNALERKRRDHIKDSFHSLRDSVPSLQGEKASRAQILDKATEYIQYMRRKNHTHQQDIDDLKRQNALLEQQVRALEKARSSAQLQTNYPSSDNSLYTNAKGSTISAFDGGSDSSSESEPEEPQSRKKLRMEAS

Sequence	binding signal (normalized occupancy)
GTCTTAAC	0.0741
TAATGCAA	0.0814
ATCCCAAA	0.0753
ATGCACGA	0.0913
CCAAGTCG	0.0722
AGGCTCAA	0.0675
CCTGAACC	0.0747
ATAGCACG	0.0866
CCAACTCC	0.0719
GGGAGGGA	0.08
CTTCGTCC	0.0666
AGCTCGAA	0.065
AGAGTCAC	0.0766
CGTATGGA	0.0815
TACCCCTA	0.0823
CGAGGAAA	0.0761
ATCATGGA	0.0834
TCGACGCA	0.0733
ATTGCCAG	0.0738
CCACACTC	0.0824
CACGCGTA	0.121
ATGGTAAT	0.0855

Sequence	binding signal (normalized occupancy)
GACTGAGC	0.0658
GAGGGCAC	0.0786
ATAGAAAA	0.0835
AATCCGCG	0.0738
ACCTTCAA	0.0719
CCTCAAGG	0.0722
CGAGTGAG	0.0739
CCCACTTC	0.0745
GTATCAAC	0.0867
ACTCCCAG	0.0739
TTCATCAA	0.0725
AGGGGCGA	0.0743
AGTTCTAG	0.0691
AGGTCTGG	0.0697
TTCCTAAA	0.0761
CCAATCGG	0.0718
ACCGTCAG	0.0692
CCGTAGGA	0.0843
AATTCCTC	0.0773
ACTGCGAT	0.0712
ACACACCA	0.0816
ACATCGCA	0.0786

Sequence	binding signal (normalized occupancy)
CAACACGC	0.0995
CGTACCAG	0.0729
ACGCCATC	0.0794
GAGCACTA	0.0715
ACTGGCTG	0.0716
CCAGCGGG	0.0662
ATTTACAG	0.0746
CCCTTCCC	0.077
AGTCGCTC	0.0699
AGCCGTGC	0.0711
AACCTTTA	0.0757
TAGAGCTA	0.0719
ACTCGAAC	0.0715
GATATTCA	0.0766
TAGTCGGA	0.0689
AGGTAAAG	0.0732
AATAATAC	0.0773
TATCTCAA	0.0807
ATCCAAGC	0.0746
AAAAATTT	0.0678
ACCCTGCC	0.0705
AACTCGAT	0.0773

Sequence	binding signal (normalized occupancy)
CGGGACCG	0.0673
CAACAAGG	0.0748
TGCATTAA	0.0782
AAGATGTC	0.0793
ACGTATCT	0.0817
CTGGTTGA	0.07
CGGGAATA	0.0776
ATGTCGCG	0.0796
ATGCTGAC	0.0823
ACAAATCG	0.0752
AAATAAGT	0.0769
GGTGTTTA	0.0788
GTAACGAA	0.0794
GTCACGAC	0.0754
CGAATCTC	0.0732
AGATGTTG	0.0819
CGAAGAAC	0.0705
CCCAGTTC	0.0708
CTCGGTGC	0.0712
CAAACACG	0.0897
